Structures are written as SMILES. Among all 52,000 compounds or so, about 4,300 (8.3%) were called active. No stated cut-off is given here; in the data, active means survival mostly below about 52% (no sharp cut-off); inactive means mostly above about 56%. The list shows a part of the results.

This assay concerns DeltatarO mutant. Put plainly: S. aureus survival, RN4220 and DeltatarO strains – OD600, teichoic acid synthesis inhibitors, primary screen (AID 463173). The settings on record: S. aureus RN4220 wild type/DeltatarO growth, OD600, 18 h, hits give low values, screened at 18.75 µg/mL (by protocol).
With `Cc1ccc(S(=O)(=O)c2nnn3c2nc(N2CCC(C(N)=O)CC2)c2cc(Cl)ccc23)cc1C`, the survival was inactive: 72%.
On to `Cc1ccc(NS(=O)(=O)c2c(C)nc3sc(C)cn3c2=O)c(C)c1`, for which the survival is inactive: 83%.
With `CS(=O)(=O)N1CCC(C(=O)NCC2CCCO2)CC1` (centres undefined) the figure was inactive: 100%; with `Cc1nc2c(c(C)nn2C(C)(C)C)c(C)c1CCC(=O)Nc1ccc(Br)cc1Br`, inactive: 74%.
Consider `N#Cc1ccc(NC(=O)c2nc3ncccn3n2)cc1`, for which the survival was inactive: 80%.
Regarding `Cc1ccccc1CNC(=O)c1ccc(CN2CC(=O)N3CCCCC3C2=O)cc1` (centres undefined), the survival is inactive: 109%.
With `CCc1nnc2c3ccccc3nc(N3CCN(c4cc(C)ccc4C)CC3)n12` the figure was inactive: 73%.
With `COc1ccc(CNC(=O)C(=O)Nc2cc(Cl)ccc2OC)cc1` the figure was inactive: 162%.
Turning to `Cc1ccccc1CN1C(=O)c2ccccc2S(=O)c2ccc(C(=O)NCc3ccc4c(c3)OCO4)cc21` (centres undefined), the survival is inactive: 71%.
The result for `COc1cccc(CNC(=O)CCC(=O)N2CC(C)Sc3ccccc32)c1` (centres undefined) reads active: 51%; that for `COc1ccc(N2CCN(S(=O)(=O)CCNC(=O)c3c(F)cccc3Cl)CC2)cc1`, inactive: 78%; that for `CC(=O)Nc1cc(C(=O)Nc2ccc3c(c2)N(C)C(=O)c2ccccc2S3)ccc1C`, inactive: 94%.
For `CCCc1nn2c(=O)cc(COC(=O)c3ccco3)nc2s1`, the survival was inactive: 77%.
As to `COc1ccc(CCNC(=O)Cn2c(=O)c3cccn3c3ccccc32)cc1OC`, the survival was inactive: 49%.
The result for `COc1cccc(-c2noc(C3CCCN(C(=O)Cc4ccccc4)C3)n2)c1` (centres undefined) reads inactive: 105%; that for `Cc1c(C(=O)NCc2ccc(F)cc2)sc2nc(-c3ccc(F)cc3)cn12`, inactive: 80%.
With `CC(=O)Nc1c(C)nn(-c2ccccc2)c1N1CCC(C(=O)Nc2cccc(C(F)(F)F)c2)CC1`, the survival was inactive: 76%.
With `CCCCOc1ccccc1C1CC(=O)Nc2cc(OC)c(OC)cc21` (centres undefined) the figure was inactive: 66%.
Regarding `CCOC(=O)Cn1c(=O)n(CC2CCCO2)c2nc(-c3ccc(CC)cc3)nc(C(N)=O)c21` (centres undefined), the survival is inactive: 72%.
As to `O=C(CSc1ncc2c(n1)-c1ccc(Cl)cc1N(Cc1ccccc1)S2(=O)=O)Nc1ccccc1C(F)(F)F`, the survival was inactive: 83%.
With `CCC(=O)Nc1cc2nn(-c3ccc(C)cc3)nc2cc1C` the figure was inactive: 58%.
The result for `Cc1ccc(NC(=O)[C@@H](c2ccccc2)N2Cc3ccccc3C2=O)cc1F` reads inactive: 61%.
Turning to `CCN(CC)CCCNC(=O)CN1C(=O)COc2ccc(S(=O)(=O)N3CCC(C)CC3)cc21`, the survival was inactive: 101%.
The result for `CC(Nc1oc(-c2ccc(COc3ccc(Cl)cc3)o2)nc1C#N)c1ccccc1` (centres undefined) reads inactive: 65%.
`O=C(NCc1ccccc1)c1ccc2c(c1)nc1n2CCOC1`: the survival was inactive: 84%.
With `COCCNC(=O)CSc1nnc2[nH]c(=O)cc(C)n12` the figure was inactive: 55%; with `CCN(CC)c1ccc(NC(=O)CN2C(=O)c3cccnc3Oc3ccc(Cl)cc32)c(C)c1`, inactive: 80%; with `CCc1ccccc1NS(=O)(=O)c1cc(Br)cc2c1N(C(=O)C1CC1)CC2`, active: 52%.
Turning to `CCc1cccc(NS(=O)(=O)c2cc(-c3cnc(C)o3)ccc2OC)c1`, the survival is inactive: 78%.
With `CCOC(=O)Cn1c(=O)n(CC2CCCO2)c2nc(-c3c(F)cccc3Cl)nc(C(N)=O)c21` (centres undefined) the figure was inactive: 84%; with `Cc1cc(C)cc(N(CC(=O)NCc2ccccc2Cl)S(=O)(=O)c2c(C)[nH]c(=O)[nH]c2=O)c1`, inactive: 118%.
Regarding `CCn1cc(S(=O)(=O)c2ccc(C)cc2C)c(=O)c2cc(F)c(N3CCCCC3)cc21`, the survival is inactive: 91%.
With `COC(=O)c1c(NC(=O)/C=C/c2ccc(OC)c(OC)c2)sc2c1CCC2` the figure was inactive: 51%; with `CC1(C)Cc2nc(N)c(C#N)cc2CO1`, inactive: 79%; with `CN(C)C(=O)Cn1c(SCC(=O)NC2CCCCC2)nc2ccccc21`, inactive: 100%.
The result for `Cc1noc(Cn2c(=O)c3ccccc3n(CC(=O)Nc3ccc(C(C)C)cc3)c2=O)n1` reads inactive: 115%; that for `CCCCC1CCC(CCCC(C)CCC(=O)O)CC1` (centres undefined), active: -4%.
For `COc1ccc(-n2cc(-c3ccc4c(c3)OCO4)n(CC(=O)Nc3cccc(C)c3)c2=O)cc1`, the survival was inactive: 67%.
With `Cc1cccc(NC(=O)Cn2cc(S(=O)(=O)Cc3ccccc3Cl)c3ccccc32)c1` the figure was inactive: 75%.
Turning to `COc1cccc(-c2n[nH]c3c2C(c2ccccn2)N(C)C3=O)c1` (centres undefined), the survival is inactive: 49%.
Regarding `O=C(CC1N=C2c3ccccc3N=C(SCC(=O)Nc3ccc(F)cc3)N2C1=O)NCc1ccc2c(c1)OCO2` (centres undefined), the survival is inactive: 67%.
With `CSc1ncc(Cl)c(C(=O)N(Cc2ccc(C(C)C)cc2)C2CCS(=O)(=O)C2)n1` (centres undefined), the survival was inactive: 70%.
The result for `Cc1ccccc1Cn1c(SCc2ccc(C(=O)NCCc3ccccc3)cc2)nc2ccncc21` reads inactive: 82%; that for `Cc1cc(C)n(C(C)CC(=O)Nc2ccc(C)c(F)c2)n1` (centres undefined), inactive: 87%.
`CCn1c(=O)c2sccc2n2c(CCCC(=O)Nc3ccc(OC)c(OC)c3)nnc12`: the survival was inactive: 91%.
`COc1ccc(C(=O)Nc2nc3n(n2)C(c2ccc(F)cc2)C=C(c2ccc(Cl)cc2)N3)cc1` (centres undefined): the survival was inactive: 54%.
For `O=C(Nc1ccccc1)C1CCCN1C(=O)Nc1ccc(F)cc1` (centres undefined), the survival is inactive: 100%.
The result for `CCOC(=O)c1ccc(NC(=O)c2cc3c([nH]c2=O)CC(c2ccccc2)CC3=O)cc1` (centres undefined) reads inactive: 95%.
The result for `CC(c1ccccc1F)n1cc(C(=O)NCC2CCCO2)nn1` (centres undefined) reads inactive: 89%; that for `Cc1c(C(=O)N(C)C)sc2c1c(=O)n(-c1ccc(Cl)c(Cl)c1)c(=O)n2CC(=O)Nc1ccc(Br)cc1F`, inactive: 144%; that for `COc1cccc(C(=O)N2CCC(N3CCN(Cc4ccc(F)cc4)C(=O)C3=O)CC2)c1`, inactive: 87%.
`COC(=O)CSc1nnc(COc2ccc(C(C)C)cc2)o1`: the survival was inactive: 96%.
Regarding `Cc1ccc(Cl)cc1N1CCN(C(=O)c2c(C)oc3ncnc(N4CCOCC4)c23)CC1`, the survival was inactive: 89%.
Consider `O=C(NC1CCCC1)C(c1ccccc1)N(CC1CCCO1)C(=O)Cn1nnc2ccccc21` (centres undefined), for which the survival was inactive: 89%.
In the case of `COC(=O)c1cccc(Nc2c(-c3cc(Br)ccc3O)nc3nc[nH]n23)c1`, the survival was inactive: 98%.
With `CCOc1ccccc1NC(=O)c1c(NCc2ccc(OC)c(OC)c2OC)sc2c1CCC(C)C2` (centres undefined) the figure was inactive: 107%; with `CCc1nnc(SCc2nc(-c3ccccc3F)oc2C)c2cc3sccc3n12`, inactive: 65%.
The result for `COc1ccc(N(CC(O)CN2CCCC2)S(=O)(=O)c2ccccc2)cc1` (centres undefined) reads inactive: 76%; that for `O=C(C1COc2ccccc2O1)N(Cc1cccnc1)c1nc2c(F)cc(F)cc2s1` (centres undefined), inactive: 70%.
The result for `Cc1ccc(C(=O)Nc2nnc(SCc3cc(=O)c4c(C)ccc(C)c4[nH]3)s2)cc1` reads inactive: 86%.
Take `O=C(Nc1ccc2nn(-c3ccc(F)cc3)nc2c1)c1cccc2c(Cl)cccc12`: the survival was inactive: 139%.
The result for `COc1ccc(OCc2nnc(SCC(=O)O)n2N)cc1` reads inactive: 81%; that for `Cc1ccc(Cl)cc1-n1c(=O)cc(N2CCN(c3ccccc3)CC2)[nH]c1=O`, inactive: 92%; that for `Cc1cc2n(n1)CCCN2C(=O)Nc1ccccc1F`, inactive: 67%.
Regarding `Cc1cccc(-c2noc(-c3ccc(NC4CCCC4)c([N+](=O)[O-])c3)n2)c1`, the survival was inactive: 81%.
With `Cc1ccc(OCC(=O)Nc2cccc(C(=O)OCc3cc(=O)n4cc(C)sc4n3)c2)cc1` the figure was inactive: 94%.
For the compound `O=C(CC1N=C2c3ccccc3N=C(SCc3cccc(Cl)c3)N2C1=O)NC1CCCCC1` (centres undefined), the survival was inactive: 84%.
With `COc1ccc(NC(=O)CSc2nnc(-c3nnn(-c4ccc(F)cc4)c3C)o2)cc1` the figure was inactive: 88%; with `COc1cc(OC)c(NC(=O)c2nc(-c3ccncc3)no2)cc1Cl`, inactive: 109%.
With `CCCCCNC(=O)C1CCC(Cn2c(=O)c3sccc3n(CC(=O)N3CCCC3)c2=O)CC1` (centres undefined) the figure was inactive: 84%.
The result for `COc1cc(OC)c(NC(=O)NCc2ccc3c(c2)CCN3C(C)=O)cc1Cl` reads inactive: 124%; that for `c1ccc(N2CCN(c3ncnc4[nH]ncc34)CC2)cc1`, inactive: 78%; that for `O=c1c2cc3c(cc2n(Cc2cccc(F)c2)c(=O)n1Cc1nc(-c2ccccc2)no1)OCO3`, inactive: 84%.
With `O=C1CC(CSc2nnc(-c3ccc(Cl)cc3)n2-c2ccccc2)=NN1`, the survival is inactive: 110%.
As for `CCc1ccccc1NC(=O)CC(C)n1nc(C)cc1C` (centres undefined), the survival was inactive: 95%.
In the case of `OC1CCN(C(=S)Nc2ccccc2)CC1`, the survival is inactive: 101%.
On to `Cc1ccc(N2C(=O)c3n[nH]c(C)c3C2c2ccc(C(C)C)cc2)cc1` (centres undefined), for which the survival is active: 39%.
With `COc1cccc(C(=O)Nc2ccccc2-c2nc(-c3ccc(C)cc3)no2)c1` the figure was active: 48%; with `COCCNC(=O)CN1CCC(NC(=O)c2ccco2)CC1`, inactive: 90%; with `CCOC(=O)c1c(S(=O)(=O)N2CCN(c3ccccc3OC)CC2)c(C)n(C)c1C`, inactive: 97%.
In the case of `Cc1ccc(C(=O)NCc2nnnn2-c2ccc(C)c(C)c2)cc1`, the survival was inactive: 115%.
With `CC(C)OC(=O)CSc1nnc(CNc2ccc(F)cc2)n1C1CCCCC1` the figure was inactive: 83%; with `Cc1ccc(-c2nnc(Nc3ccc(Br)cc3)c3ccccc23)cc1S(=O)(=O)NCc1nc2ccccc2[nH]1`, inactive: 67%; with `CCOC(=O)c1ccc(NC(=O)CSc2nnc(CNc3ccc(C)cc3C)n2Cc2ccco2)cc1`, inactive: 68%.
The result for `Cc1ccc(Cl)cc1NC(=O)c1cccc(NC(=O)N2CCSc3ncccc32)c1` reads inactive: 115%; that for `CCOc1ccc(NC(=O)C2CCCN(c3nnc(-n4c(C)ccc4C)s3)C2)cc1` (centres undefined), inactive: 71%; that for `CCC(C(=O)OC(C)C)n1cnc2sc3c(c2c1=O)CCC(C)C3` (centres undefined), inactive: 93%.
With `CCc1ccc(NCc2cc3ccc(OC)cc3n(CC(=O)Nc3cccc(Cl)c3C)c2=O)cc1` the figure was inactive: 76%; with `COc1ccc(S(=O)(=O)N(CCc2ccccc2)CC(=O)NCc2ccccc2)cc1OC`, inactive: 62%.

The values are drawn from PubChem BioAssay AID463173 (ICCB-Longwood Screening Facility, Harvard Medical School, 2010).
